The densities may have been worked out from excess volumes.
Test: xn = mol fraction of the nth substance listed
Settings: 101.3 kPa

CCCC[n+]1ccn(C)c1.F[B-](F)(F)F + NCCNCCN
x1 = 1
Settings	mass density [kg/m3]
313.15 K	1189.4
318.15 K	1186.8
323.15 K	1182.9
333.15 K	1176

NCCNCCN + CCCC[n+]1ccn(C)c1.F[B-](F)(F)F
mass density [kg/m3]
Settings	298.15 K	303.15 K	308.15 K	313.15 K	318.15 K	323.15 K	328.15 K	333.15 K
x2 = 0	–	942.5	937.5	932.5	929.1	925.7	921.5	917.3
x2 = 0.051	968.9	965.9	961.5	956.9	–	951.1	947.4	943.6
x2 = 0.1986	1026.1	1023.1	1019	–	1012.1	1008.9	1005.2	–
x2 = 0.2998	1059.5	–	–	1048.7	1045.8	–	–	–
x2 = 0.3995	–	1085.4	1081.8	–	1075.1	–	–	1064.3
x2 = 0.4992	1113.6	–	1106.7	–	1100.1	1096.5	–	–
x2 = 0.5905	–	–	1126.3	1122.6	1119.9	–	1113.2	1109.6
x2 = 0.6974	1153.4	–	1146.4	–	1140	1136.5	–	–
x2 = 0.8012	1171.4	1167.9	1164.3	1160.3	1157.8	1154.2	1151.2	1147.6
x2 = 0.8948	1186.5	–	1179.4	1175.4	1173	1169.2	1166.3	1162.7
x2 = 0.9496	1194.6	1191	1187.6	1183.6	1181.3	–	1174.4	–

Reference: a compilation of properties of binary mixtures (doi:10.1007/s10953-019-00868-0)
